Laboratory results taken from PubChem BioAssay AID1240 (Sanford-Burnham Center for Chemical Genomics, 2008).
Hit rate of the full screen: of about 50,000 compounds, about 800 (1.6%) showed an effect of 50% or more. Some of the results follow.

The molecules below were run against Bcl-2-like protein 10 (Homo sapiens) (UniProt Q9HD36) (assay: Phenotype converters, Bcl-B/TR3 peptide binding displacement, primary biochemical FP (AID 1240;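 note: 0% = Bcl-B with tracer peptide and DMSO and 100% = tracer peptide lacking Bcl-B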)). Details: GST-Bcl-B / FITC-TR3 peptide fluorescence polarization; stronger effect = higher value; compound at 3.75 mg/L.
Sequence of UniProt Q9HD36 (Q9HD36 whole entry, looked up): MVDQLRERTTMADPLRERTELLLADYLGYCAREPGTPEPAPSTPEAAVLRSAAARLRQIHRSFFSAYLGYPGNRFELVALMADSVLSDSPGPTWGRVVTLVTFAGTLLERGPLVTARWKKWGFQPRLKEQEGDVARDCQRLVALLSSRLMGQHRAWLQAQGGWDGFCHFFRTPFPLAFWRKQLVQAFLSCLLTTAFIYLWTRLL

First: O=C(COc1ccc(Br)cc1)N1CCc2ccccc2C1
Second: Cc1ccc(N2C(=O)CC(N3CCc4ccccc4C3)C2=O)cc1 (stereo not given)
The displacement of the first is lower: -1.7% for the first, 1.9% for the second.

Compared with COc1ccc(N(CC(N)=O)S(=O)(=O)c2ccccc2)cc1, COc1ccc(S(=O)(=O)N(CC(N)=O)Cc2ccccc2)cc1 is lower in displacement: 8.9% for the first, -15% for the second.

Compared with Cc1nnc(SCC(=O)N2c3ccccc3C(C)(c3ccc(Br)cc3)CC2(C)C)s1 (stereo not given), Cc1cccc(C)c1NC(=O)C1CC(=O)N(c2ccc(Br)cc2)C1 (stereo not given) is higher in displacement: 7% for the first, 7.3% for the second.

Compared with CCOc1ccccc1N1CCN(C(=O)c2cc(-c3ccccc3)nc3ccccc23)CC1, CCOc1ccccc1N1CCN(C(=O)c2ccncc2)CC1 is lower in displacement: 24.7% for the first, -2.3% for the second.

Compared with CC(C)CC(=O)N1c2ccccc2NC2=C(C(=O)CC(C)(C)C2)C1c1ccc2c(c1)OCO2 (stereo not given), O=C1C2=C(C(c3ccccc3)=NCCN2)C(c2ccc3c(c2)OCO3)N1c1ccccc1 (stereo not given) is higher in displacement: -19.7% for the first, -0.1% for the second.

Going from Brc1ccc(CN2CCN(Cc3ccccn3)CC2)cc1 to O=C(Nc1c(C(=O)N2CCCC2)cnn1-c1ccccc1)c1ccc(Br)cc1, the displacement rises from -21.7% to -10.4%.

Compared with COC(=O)c1c(NC(=O)c2cccc(Cl)c2)sc(C)c1C, Cc1c(C(=O)OC(C)C)sc(NC(=O)c2cccc(F)c2)c1C#N is lower in displacement: 39.9% for the first, -10% for the second.

Compared with COc1cc(C(=O)N/C(=C/c2ccco2)C(=O)Nc2ccccc2)cc(OC)c1OC, COc1cc(NC(=O)c2cccnc2)ccc1NC(=O)c1ccco1 is lower in displacement: 5.4% for the first, 2.5% for the second.

Compared with O=C1NC(=O)N(c2ccccc2)C(=O)/C1=C/c1ccc(-c2ccccc2C(=O)O)o1, Cc1ccc(N2C(=O)NC(=O)/C(=C\c3ccc(C)s3)C2=O)cc1 is higher in displacement: -17.2% for the first, 13.4% for the second.

Going from CS(=O)(=O)N1CCN(Cc2ccccc2[N+](=O)[O-])CC1 to Cc1cc(C(=O)N2CCN(C)CC2)ccc1[N+](=O)[O-], the displacement rises from 12.7% to 14.6%.

Compared with CC(C)OCCCNC(=O)C(=O)Nc1cccc(Cl)c1Cl, CN(C)CCCNC(=O)c1cccc(F)c1 is lower in displacement: 0.8% for the first, -6% for the second.

Going from COc1ccc(S(=O)(=O)NCCc2ccccc2)cc1OC to Cn1c(=O)cc(NCCc2ccccc2)[nH]c1=O, the displacement falls from 3.9% to -1.7%.

Compared with Cc1ccc(/C(O)=C/c2nc3ccccc3oc2=O)o1, COc1ccccc1/C=C(/C#N)c1nc2ccc(C)cc2[nH]1 is lower in displacement: 116% for the first, -7.2% for the second.

Compared with CCOC(=O)C1=C(c2ccccc2)N=c2s/c(=C\c3ccco3)c(=O)n2C1c1cccs1 (stereo not given), CCOC(=O)c1cnn(-c2ccccc2)c1NC(=O)c1ccccc1C is higher in displacement: -11% for the first, -10.1% for the second.

Going from COc1ccccc1-c1cc(C(=O)O)c2ccccc2n1 to O=C(Nc1ccc(Br)cc1F)c1cc(-c2ccccc2)nc2ccccc12, the displacement rises from -6% to 1.1%.

First: CC(C)=CCC/C(C)=C/CC(C)(C)C1OCCC(C)O1 (stereo not given)
Second: Cc1oc2ccc(OCC(=O)C(C)(C)C)cc2c1C(=O)OC(C)C
The displacement of the first is higher: 14.1% for the first, 5.2% for the second.

Going from COc1ccccc1OCC(=O)Nc1ccc2c(c1)OCO2 to CN(C)c1ccc(NC(=O)COc2ccccc2Cl)cc1, the displacement falls from 11.8% to -1.7%.

Compared with O=C(O)c1ccc([N+](=O)[O-])cc1C(=O)c1ccccc1, O=C(Nc1cc([N+](=O)[O-])ccc1C(=O)Nc1ccncc1)c1ccccc1 is higher in displacement: -12.3% for the first, 12.9% for the second.

First: COc1cc(-c2nc(-c3ccccc3)c(-c3ccccc3)[nH]2)ccc1OCC(=O)O
Second: O=C(Nc1ccc2c(c1)ncn2-c1ccccc1)c1ccccc1
The displacement of the first is higher: 2.4% for the first, -2% for the second.

Compared with COc1cc2c(cc1OC)-c1nnc(C)n1C1(CCCC1)C2, COc1cc([N+](=O)[O-])ccc1NC(=O)/C=C/c1ccc(OC)c(OC)c1 is lower in displacement: 0% for the first, -7% for the second.

Compared with COc1ccccc1/C=C1/SC(=Nc2ccc(F)cc2)NC1=O, COc1ccc(N=Cc2c(C)[nH]n(-c3ccccc3)c2=O)cc1 is lower in displacement: 161% for the first, 1.2% for the second.

Going from O=C(COC(=O)c1ccccc1NC(=O)c1ccccc1)c1ccc(Br)cc1 to CC(NC(=O)c1ccccc1NC(=O)c1ccccc1F)c1ccccc1 (stereo not given), the displacement rises from 4.7% to 5%.

First: Cc1cc(C)cc(NCc2ccccn2)c1
Second: c1ccc(CNc2ccccn2)cc1
The displacement of the first is higher: 24.9% for the first, 7.1% for the second.

Going from CCCOc1cccc(C(=O)Nc2nc(-c3ccc(C)cc3)cs2)c1 to Cc1ccc(OCc2nnc(NC(=O)c3ccco3)s2)cc1, the displacement rises from -6.9% to 15.1%.

Going from COC(=O)c1cc(NC(=O)c2cc(I)ccc2Cl)cc(C(=O)OC)c1 to CCOC(=O)c1c(NC(=O)c2ccc(Cl)c([N+](=O)[O-])c2)sc(C(=O)Nc2cc(C(F)(F)F)ccc2Cl)c1C, the displacement rises from 12.9% to 13.7%.

Compared with COc1ccc(C)cc1NS(=O)(=O)c1ccc(NC(C)=O)cc1, CCCC(=O)NS(=O)(=O)c1ccc(NC(=O)c2ccc(Cl)cc2)cc1 is higher in displacement: 0.2% for the first, 12.1% for the second.

Compared with Cn1cnnc1Sc1nc2c(c(=O)n(C)c(=O)n2C)n1Cc1ccc(Cl)cc1Cl, CON(C)c1nc(OCCNC(=O)COc2ccc(Cl)cc2Cl)nc(N(C)C)n1 is lower in displacement: 10.3% for the first, -7.4% for the second.

Compared with C=CCn1cc(C)c(=O)n(CC=C)c1=O, C=C(C)CN1C(=O)c2ccccc2C1=O is lower in displacement: 9.5% for the first, 4.5% for the second.

Going from COc1cc(NC(=O)COc2ccc(F)cc2)c(OC)cc1NC(C)=O to CC(=O)c1ccc(NC(=O)COc2ccc(C)cc2)cc1, the displacement rises from -2.3% to 1.2%.

Going from CC1=C(C(=O)Nc2cc(Cl)ccc2C)C(c2ccc(N(C)C)cc2)NC(=S)N1 (stereo not given) to Cc1cc(C)c2oc(-c3ccc(C)c(NC(=O)c4cccc(Cl)c4Cl)c3)nc2c1, the displacement falls from 11.3% to 8.7%.

First: S=C(NCCc1c[nH]c2ccccc12)Nc1ccc(Cl)cc1Cl
Second: S=C(Nc1ccc(Cl)cc1Cl)NC1CCCCC1
The displacement of the first is lower: -7.5% for the first, -6.9% for the second.

Going from CCOC(=O)c1c[nH]c2ccc(OC)cc2c1=O to CCN1C(=O)/C(=C\c2ccc(F)cc2)C(C(=O)OC)=C1C, the displacement rises from 3.8% to 34.2%.

Compared with O=C1CC(N(Cc2ccco2)C(=S)NCCc2ccccc2)C(=O)N1c1ccc(F)cc1 (stereo not given), O=C1CC(N2CCN(c3ccc(Cl)cc3)CC2)C(=O)N1CCc1ccccc1 (stereo not given) is lower in displacement: 27.4% for the first, 9.7% for the second.

First: Cc1ccc(OCC(=O)N/N=C\c2ccc[nH]2)cc1
Second: Cc1ccc2[nH]c(C(=O)N/N=C/c3cccs3)c(-c3ccccc3)c2c1
The displacement of the first is higher: 9.5% for the first, -9.7% for the second.

First: N#Cc1c(N)c(C#N)c(-c2ccco2)c2c1CCCC2
Second: CN(C)c1ccc(-c2nc3sc4c(c3c(=O)[nH]2)CCCC4)cc1
The displacement of the first is higher: -3.3% for the first, -12% for the second.

First: CCOc1ccc(-n2nc3ccc(NC(=O)c4ccc([N+](=O)[O-])o4)cc3n2)cc1
Second: O=C(Nc1ccc(-c2nc3ccccc3o2)c(O)c1)c1cccc(OCc2ccccc2)c1
The displacement of the first is higher: 8.7% for the first, 8.1% for the second.

Compared with CCn1c(O)c(/C=C2\C=Nc3ccccc32)sc1=S, O=C(O)CN1C(=O)/C(=C\c2cccc3ccccc23)SC1=S is lower in displacement: -1% for the first, -28% for the second.

Compared with CCCCS(=O)(=O)N1CN(S(=O)(=O)CCCC)C2NC(=O)NC21 (stereo not given), CCSCCOC(=O)C1=C(C)N(C)C(=O)NC1c1cc2c(cc1Br)OCO2 (stereo not given) is lower in displacement: 1.2% for the first, -3.4% for the second.

Going from O=C(Nc1ccccc1F)c1cnccn1 to O=C(NCc1cccnc1)C(O)(c1ccccc1)c1ccccc1, the displacement rises from 7.5% to 8.1%.

First: CC(C)(CNC(c1ccccc1)c1ccccc1)NS(=O)(=O)c1ccc(Cl)cc1
Second: Fc1cccc(NC(=S)NC(c2ccccc2)c2ccccc2)c1
The displacement of the first is higher: 10.6% for the first, -3.9% for the second.

Compared with O=[N+]([O-])c1ccc(C=Nc2ccc(Br)cn2)o1, Cc1c(Cl)cccc1N=Cc1ccc([N+](=O)[O-])o1 is higher in displacement: 11.7% for the first, 11.9% for the second.

Going from O=C(Nc1ccc2nc3c4ccccc4c4ccccc4c3nc2c1)N1CCOCC1 to O=S(=O)(Nc1cc(Cl)c(O)c2ccccc12)c1ccc(F)cc1, the displacement falls from 77.1% to 4.7%.

Compared with COc1cc([N+](=O)[O-])ccc1N1C(=O)C2C3C=CC(C3=C(C)C)C2C1=O (stereo not given), COc1ccc(/C=C/C(=O)c2ccc(Br)cc2)cc1[N+](=O)[O-] is lower in displacement: 13% for the first, 12.9% for the second.

Compared with COC(=O)c1ccc(/C=C2/C=C(c3ccc(Br)cc3)OC2=O)cc1, COC(=O)C1=C(C)N(c2ccc(F)cc2)/C(=C/c2ccc(O)cc2)C1=O is lower in displacement: 11.9% for the first, 1.7% for the second.

First: NC(=O)C1CCN(C(=O)c2cccc(C#Cc3ccccc3)c2)CC1
Second: O=C(C#Cc1ccc([N+](=O)[O-])cc1)c1ccccc1
The displacement of the first is lower: -2.3% for the first, 5.1% for the second.

Going from COc1ccc(C(=O)/C=C/c2cccc(OC)c2OC)cc1 to COC(=O)CN1C(c2ccc(OC)cc2)Nc2ccc(Br)cc2C1c1ccccc1 (stereo not given), the displacement rises from 0% to 11.2%.

First: O=C1C2C3CCC(O3)C2C(=O)N1c1ccccn1 (stereo not given)
Second: Cc1cccc(N2C(=O)c3cccc([N+](=O)[O-])c3C2=O)n1
The displacement of the first is higher: 15.9% for the first, 6.1% for the second.

Going from Cc1ccc(O)c(NC(=O)c2cc3nc(-c4ccc(F)cc4)cc(C(F)(F)F)n3n2)c1 to O=C(O)COc1ccc2c(=O)c(-c3ccc(Cl)cc3)coc2c1, the displacement falls from 4.5% to -2.6%.

Going from COc1cc(C=Nc2c(C)n(C)n(-c3ccccc3)c2=O)c([N+](=O)[O-])cc1OC to CC(C)(C)c1ccc(OCCn2cc(/C=C3/SC(=S)NC3=O)c3ccccc32)cc1, the displacement falls from 130% to 15.2%.

First: CCOC(=O)c1c(NC(=O)COc2ccc(Cl)cc2)sc(C(=O)N2CCCCC2)c1C
Second: O=S(=O)(c1ccc2c(c1)Cc1ccccc1-2)N1CCCCC1
The displacement of the first is higher: 6% for the first, -14.2% for the second.

First: Cc1onc(-c2c(Cl)cccc2Cl)c1C(=O)Nc1cc(Cl)ccc1Cl
Second: Cc1cc(Nc2cccc(O)c2)n2ncnc2n1
The displacement of the first is lower: 5.3% for the first, 10.1% for the second.

First: O=C(O)c1ccc(N/C(=N\S(=O)(=O)c2ccc(Cl)cc2)c2ccccc2)cc1
Second: Cc1ccc(C(O)(CN(Cc2ccccc2)C(=O)c2ccccc2)c2ccccc2)cc1 (stereo not given)
The displacement of the first is higher: 11% for the first, -3.9% for the second.

Compared with NC(=O)c1ccc[n+](CC(=O)OCC23CC4CC(CC(C4)C2)C3)c1, O=C(CCN1C(=O)/C(=C/c2cccs2)SC1=S)NC12CC3CC(CC(C3)C1)C2 is higher in displacement: 3.2% for the first, 10.5% for the second.

Compared with O=[N+]([O-])c1ccc(N2CCCCC2)nc1, N#CC1=C(S)NC(=O)C(C#N)C12CCCCC2 (stereo not given) is lower in displacement: 2.8% for the first, -5.2% for the second.

Going from C/C(=N\NC(=O)C1CC1)c1cccnc1 to CCCN(CCC)CCSc1nc(O)c(C(C)C)c(=O)n1-c1ccccc1, the displacement falls from 2.7% to -11.9%.
